Laboratory results from publication PMC5892938.
This is one part of the list. At the low end of the ranking the order means little.

Target: GST-SBP-SLBP (stem-loop binding protein) (UniProt Q14493)
Assay: targeted RNA Bind-n-Seq;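 also: DESeq read counts versus GST-SBP nonspecific binding control pulldown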
Conditions: RBNS binding buffer: 25 mM Tris pH 7.5, 150 mM KCl, 3 mM MgCl2, 0.1% Tween, 0.5 mg/mL BSA, 1 mM DTT; 27 nM protein, 750 pM RNA pool; temperature not stated; high values mean tight binding

Sequence	binding signal (log2 fold change)
GGUCACGUCUCAAUCAACUCUUUCUCAGGAGUUUACUCCUGCAUUUUCAACAGCUCGCAGUCAAG	0.162
GGUCACGUCUCAAUCAACUCUUUUCCCAGGGAAAACCCUGGUUUUUUCAACAGCUCGCAGUCAAG	0.0739
GGUCACGUCUCAAUCAACUCAAGUCCAGGAGUUUCCUCCUGUUAUUUCAACAGCUCGCAGUCAAG	0.0242
GGUCACGUCUCAAUCAACUCAAUUCCAGGAGUUUACUCCUGCUUUUUCAACAGCUCGCAGUCAAG	0.0374
GGUCACGUCUCAAUCAACUCUUCCGCAGGAGUUUCCUCCUGGUAUCUCAACAGCUCGCAGUCAAG	-0.026
GGUCACGUCUCAAUCAACUCAACUCCAGGAGUUUACUCCUGCAUACUCAACAGCUCGCAGUCAAG	0.111
GGUCACGUCUCAAUCAACUCCUCAGAGGGGGGGAAAACCCCUUUGCCCUCCAAUUCAACAGCUCGCAGUCAAG	-0.091
GGUCACGUCUCAAUCAACUCUUCCCCCAGGGAAAUCCCUGGCAUUUUCAACAGCUCGCAGUCAAG	0.105
GGUCACGUCUCAAUCAACUCUUUUUCAGGAGUUUCCUCCUGCAUUCUCAACAGCUCGCAGUCAAG	0.0298
GGUCACGUCUCAAUCAACUCUUACGAGGGGGGGAAAACCCCUUUGCCCUCAUUAUCAACAGCUCGCAGUCAAG	-0.0983
GGUCACGUCUCAAUCAACUCAAUUUCAGGAGUUUACUCCUGCUAAGUCAACAGCUCGCAGUCAAG	-0.0766
GGUCACGUCUCAAUCAACUCAUUAGAGGGGGGGAAAACCCCUUUACCCUCAUCGUCAACAGCUCGCAGUCAAG	-0.446
GGUCACGUCUCAAUCAACUCAUUUUCAGGAGUUUCCUCCUGCUAUUUCAACAGCUCGCAGUCAAG	0.246
GGUCACGUCUCAAUCAACUCUUUUUCCAGGGAAAACCCUGGCAAAUUCAACAGCUCGCAGUCAAG	0.0713
GGUCACGUCUCAAUCAACUCAUCGUCAGGAGUUUUCUCCUGUAAACUCAACAGCUCGCAGUCAAG	0.313
GGUCACGUCUCAAUCAACUCUUCUCCCAGGGAAAGCCCUGGUAAAUUCAACAGCUCGCAGUCAAG	-0.279
GGUCACGUCUCAAUCAACUCUUCUUCAGGAGUUUUCUCCUGUUUACUCAACAGCUCGCAGUCAAG	0.0488
GGUCACGUCUCAAUCAACUCUUCUCCCAGGGAAAUCCCUGGUAUACUCAACAGCUCGCAGUCAAG	0.329
GGUCACGUCUCAAUCAACUCAGUCUCAGGAGUUUUCUCCUGCAAUUUCAACAGCUCGCAGUCAAG	-0.0824
GGUCACGUCUCAAUCAACUCUAUAGAGGGGGGGAAAACCCCUUUGCCCUCAAAAUCAACAGCUCGCAGUCAAG	-0.0818
GGUCACGUCUCAAUCAACUCUUCCUCAGGAGUUUACUCCUGUUAUUUCAACAGCUCGCAGUCAAG	0.0306
GGUCACGUCUCAAUCAACUCAAAAGAGGGGGGGAAAACCCCUUUGCCCUCAAUUUCAACAGCUCGCAGUCAAG	0.262
GGUCACGUCUCAAUCAACUCAUCGCCAGGAGUUUACUCCUGCUAUUUCAACAGCUCGCAGUCAAG	0.00946
GGUCACGUCUCAAUCAACUCUUCGCCCAGGGAAAACCCUGGUAAUCUCAACAGCUCGCAGUCAAG	-0.0666
GGUCACGUCUCAAUCAACUCAAUCCCCAGGGAAAACCCUGGCAAUCUCAACAGCUCGCAGUCAAG	0.0836

Sequence	binding signal (log2 fold change)
GGUCACGUCUCAAUCAACUCAAUUCCCAGGGAAAACCCUGGCUAUCUCAACAGCUCGCAGUCAAG	-0.144
GGUCACGUCUCAAUCAACUCCCACGAGGGGGGGAAAACCCCUUUACCCUCAUCCUCAACAGCUCGCAGUCAAG	-0.409
GGUCACGUCUCAAUCAACUCAUUUUCAGGAGUUUCCUCCUGUAUAUUCAACAGCUCGCAGUCAAG	0.0182
GGUCACGUCUCAAUCAACUCUAUCUCCAGGGAAAACCCUGGUUUAUUCAACAGCUCGCAGUCAAG	-0.0687
GGUCACGUCUCAAUCAACUCUCAAGAGGGGGGGAAAACCCCUUUACCCUCACUAUCAACAGCUCGCAGUCAAG	0.187
GGUCACGUCUCAAUCAACUCCUUCGAGGGGGGGAAAACCCCUUUACCCUCACACUCAACAGCUCGCAGUCAAG	-0.346
GGUCACGUCUCAAUCAACUCAUCCUCAGGAGUUUCCUCCUGUUUACUCAACAGCUCGCAGUCAAG	-0.015
GGUCACGUCUCAAUCAACUCACUAGAGGGGGGGAAAACCCCUUUACCCUCCUUAUCAACAGCUCGCAGUCAAG	-0.131
GGUCACGUCUCAAUCAACUCAGUCCCAGGAGUUUCCUCCUGCAAUCUCAACAGCUCGCAGUCAAG	-0.072
GGUCACGUCUCAAUCAACUCAUUCCCAGGAGUUUCCUCCUGCAAUUUCAACAGCUCGCAGUCAAG	-0.121
GGUCACGUCUCAAUCAACUCAUUCCCAGGAGUUUCCUCCUGCUAACUCAACAGCUCGCAGUCAAG	0.178
GGUCACGUCUCAAUCAACUCUACUCCCAGGGAAAUCCCUGGCUAUCUCAACAGCUCGCAGUCAAG	-0.071
GGUCACGUCUCAAUCAACUCAACUUCAGGAGUUUGCUCCUGCUUACUCAACAGCUCGCAGUCAAG	0.052
GGUCACGUCUCAAUCAACUCGUCUUCAGGAGUUUCCUCCUGCAAUUUCAACAGCUCGCAGUCAAG	0.211
GGUCACGUCUCAAUCAACUCUUUUCCAGGAGUUUUCUCCUGUUAAUUCAACAGCUCGCAGUCAAG	-0.0553
GGUCACGUCUCAAUCAACUCUACUUCCAGGGAAAACCCUGGCUAACUCAACAGCUCGCAGUCAAG	-0.00109
GGUCACGUCUCAAUCAACUCUUCUUCCAGGGAAACCCCUGGUUAACUCAACAGCUCGCAGUCAAG	0.128
GGUCACGUCUCAAUCAACUCCAUGGAGGGGGGGAAAACCCCUUUACCCUCAAAUUCAACAGCUCGCAGUCAAG	-0.395
GGUCACGUCUCAAUCAACUCUAUCCCCAGGGAAACCCCUGGCUAUCUCAACAGCUCGCAGUCAAG	-0.145
GGUCACGUCUCAAUCAACUCUUUUCCAGGAGUUUUCUCCUGCAAAUUCAACAGCUCGCAGUCAAG	-0.0619
GGUCACGUCUCAAUCAACUCUUCUUCAGGAGUUUUCUCCUGCUAUCUCAACAGCUCGCAGUCAAG	0.125
GGUCACGUCUCAAUCAACUCUAUCUCCAGGGAAAACCCUGGCAAAUUCAACAGCUCGCAGUCAAG	0.157
GGUCACGUCUCAAUCAACUCAUCUCCCAGGGAAACCCCUGGUAAUCUCAACAGCUCGCAGUCAAG	0.0397
GGUCACGUCUCAAUCAACUCUUUCUCCAGGGAAAACCCUGGCUAUCUCAACAGCUCGCAGUCAAG	0.0916
GGUCACGUCUCAAUCAACUCUUUCUCAGGAGUUUCCUCCUGCAAUUUCAACAGCUCGCAGUCAAG	0.248

Sequence	binding signal (log2 fold change)
GGUCACGUCUCAAUCAACUCAACUCCCAGGGAAAUCCCUGGCAAAUUCAACAGCUCGCAGUCAAG	0.0863
GGUCACGUCUCAAUCAACUCUUCCUCCAGGGAAAACCCUGGUAAUUUCAACAGCUCGCAGUCAAG	-0.0581
GGUCACGUCUCAAUCAACUCACAAGAGGGGGGGAAAACCCCUUUGCCCUCAACAUCAACAGCUCGCAGUCAAG	0.189
GGUCACGUCUCAAUCAACUCAGUCCCAGGAGUUUUCUCCUGCAUAUUCAACAGCUCGCAGUCAAG	0.0113
GGUCACGUCUCAAUCAACUCAUCUCCAGGAGUUUCCUCCUGCUUUCUCAACAGCUCGCAGUCAAG	-0.125
GGUCACGUCUCAAUCAACUCUACUUCAGGAGUUUACUCCUGUAAAUUCAACAGCUCGCAGUCAAG	0.139
GGUCACGUCUCAAUCAACUCAAUCCCAGGAGUUUGCUCCUGCUAUCUCAACAGCUCGCAGUCAAG	0.112
GGUCACGUCUCAAUCAACUCUUCUCCAGGAGUUUUCUCCUGUAAAUUCAACAGCUCGCAGUCAAG	0.14
GGUCACGUCUCAAUCAACUCCCUAGAGGGGGGGAAAACCCCUUUGCCCUCGAUAUCAACAGCUCGCAGUCAAG	0.0782
GGUCACGUCUCAAUCAACUCAUCUCCAGGAGUUUACUCCUGCAUUCUCAACAGCUCGCAGUCAAG	0.0217
GGUCACGUCUCAAUCAACUCUAUCCCCAGGGAAAGCCCUGGUUAUUUCAACAGCUCGCAGUCAAG	-0.0712
GGUCACGUCUCAAUCAACUCAAUCUCCAGGGAAAACCCUGGCAUAGUCAACAGCUCGCAGUCAAG	0.00683
GGUCACGUCUCAAUCAACUCAUCGCCAGGAGUUUGCUCCUGUAUUUUCAACAGCUCGCAGUCAAG	0.321
GGUCACGUCUCAAUCAACUCUUCGUCAGGAGUUUACUCCUGUUUAUUCAACAGCUCGCAGUCAAG	-0.0203
GGUCACGUCUCAAUCAACUCUUACGAGGGGGGGAAAACCCCUUUACCCUCACAUUCAACAGCUCGCAGUCAAG	0.283
GGUCACGUCUCAAUCAACUCAAUCUCCAGGGAAAGCCCUGGCUAUCUCAACAGCUCGCAGUCAAG	-0.014
GGUCACGUCUCAAUCAACUCAUCUUCCAGGGAAAUCCCUGGCAAUCUCAACAGCUCGCAGUCAAG	0.0372
GGUCACGUCUCAAUCAACUCAUCUUCCAGGGAAACCCCUGGUUAAUUCAACAGCUCGCAGUCAAG	0.0695
GGUCACGUCUCAAUCAACUCUACUUCCAGGGAAAUCCCUGGCUAUGUCAACAGCUCGCAGUCAAG	0.0885
GGUCACGUCUCAAUCAACUCAAUCCCAGGAGUUUACUCCUGCAAUUUCAACAGCUCGCAGUCAAG	0.0311
GGUCACGUCUCAAUCAACUCAACUUCCAGGGAAAACCCUGGCAAACUCAACAGCUCGCAGUCAAG	0.027
GGUCACGUCUCAAUCAACUCAUCCUCAGGAGUUUUCUCCUGCUUAGUCAACAGCUCGCAGUCAAG	0.00739
GGUCACGUCUCAAUCAACUCAUCCCCAGGAGUUUCCUCCUGCUAUCUCAACAGCUCGCAGUCAAG	0.137
GGUCACGUCUCAAUCAACUCUUCCUCCAGGGAAAACCCUGGCUUUCUCAACAGCUCGCAGUCAAG	0.11
